Experimental data from the supplement of paper PMC3724861.
This is one part of the list.

Each sequence was assayed on T1, Caupolican (Caup) homeodomain DNA-binding domain (assay: PBM E-score (8-mer, recovered from the published 9-mer minima) (E-score (dimensionless, -0.5 to 0.5)); Drosophila protein; higher = stronger relative binding preference, active = 0.31 or more).
T1 sequence: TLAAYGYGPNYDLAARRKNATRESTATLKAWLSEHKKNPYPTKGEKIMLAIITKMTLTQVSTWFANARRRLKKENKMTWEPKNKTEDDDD
In short: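 Caup's homeodomain DNA-binding domain (residues 214-303) was produced by in vitro transcription and translation and applied at 100 nM to custom-designed protein binding microarrays. Each value is an enrichment score giving relative binding preference for a short DNA word; higher means stronger. Published 9-mer scores were the minimum of their two constituent 8-mer scores, and the 8-mer values were recovered from those minima. A cutoff of 0.31 marks candidate binding sequences.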

PBM E-score, active:
AACATGGA 0.325
AACACGAC 0.321
TAATGACA 0.331
TATACATA 0.326
ACATACAC 0.352
CTTACAAC 0.333

PBM E-score, ≥ 0.00152:
ACGCCTGA

PBM E-score, ≥ 0.176:
ATACGAAT

PBM E-score, ≥ 0.0436:
AACCCACA

PBM E-score, ≥ -0.0334:
TCGCCACA

PBM E-score, ≥ -0.0163:
AGGGACTA

PBM E-score, inactive:
ATCCGAAA -0.0583
ACCAAGAC 0.0293
GTACGGTA 0.0328
GGCAGGAA -0.0697
TAGTGAGA -0.00666
AACTCACG -0.0141
GGAGTCCC -0.176
AGTGGTCG 0.0104
TAGTTCAA 0.0464
CCTATACG -0.113
ATGGAGCG -0.0837
ATCTAACA 0.244
CCAACGGC -0.228
AAAAAATG 0.0978
GTTATAGA 0.217
CGGCGGTA -0.0433
GGGAAGGA -0.134
AAGATCTA -0.0189
AACGTCCA -0.0088
GCGGCTGA -0.214
TCCGCAAA -0.0879
CGGATTAG 0.0107
ATCGGACA 0.199
ACCCCAAG -0.166
CGGAAGCA -0.0328
ATTGGCGG -0.141
CCCGGTGC -0.303
CCCTATAC -0.1
CGTGAATA 0.133
GACCTTAC -0.0414
CATATATC 0.14
AAGTACCC -0.0126
CCAACAGC -0.0623
GAGGCGGA -0.268
ATCTGGCG -0.0594
CCTGTTAG 0.114
ACTCGTAA 0.117
TGGTGACA 0.266
CCAGACAG -0.00369
AGGTGTAA 0.2
ATCTCTGG -0.00282
CGCTGGTC -0.179
GATCCTAC -0.00525
CAAAGTGC -0.0432
CGCCACAA -0.05
ACTCCCCT -0.187
CATAGTAA 0.228
CCTTTGAA -0.0192
ACGGGGGC -0.283
CGTGATTC 0.0106
AAGGTACT 0.117
ACTATCAC 0.0593
GGGGCCGA -0.314
TAGATCCA 0.0205
CTGTGGCA -0.0298
GGACCGAC -0.123
CACAGTGG -0.0244
CAGAATTC 0.0181
CCCGATCA -0.123
AAGAAGAC 0.108
GACCTGGC -0.199
GATGTGCC -0.0456
GGGATAGA -0.0332
CCGATAGC -0.121
AGGAGTAT 0.00187
CGGCCCTC -0.331
GGGATCAC -0.108
AGTAACGG 0.0157
CCCGACGC -0.195
ATCTTCTG -0.0212
CGCAGACC -0.224
AGATAGCC -0.118
GCTAGCAC -0.0674
TACCCATA 0.0137
ACAATCGG 0.151
GCATTGAC 0.0357
CACAGGAA 0.106
CATCCATA 0.117
CCTCCGCA -0.12
GGGTGTGA -0.0838
GAGCTTCC -0.101
AATCTCAA 0.0115
ACTTAGCA 0.00821
CCACCTCA -0.0372
GGTGTTAC 0.247
GCACTCGC -0.139
AAGTGACA 0.241
GCAGCGGA -0.122
ATGCTGGA 0.0168
AGACAAAA 0.0648
CACCGCAA -0.0367
GCTCCTCC -0.252
CAGCCTCA -0.145
ACTTTTTC -0.00476
AAAATAGC -0.0429
AGCAAACT 0.0814
ACGGACAA 0.248
AGTAACTG 0.138
CGATCGCG -0.0834
CGTGTTGC 0.11
GAGGCACC -0.288
CCGCTACG -0.273
CGGTTCTC -0.0678
ACATCCGA 0.162
ACACAATG 0.273
AAGACGCG -0.096
CAAGGGGC -0.105
CTGGGCAA -0.111
CAATTTAA 0.149
ACTGGTAG 0.124
CACTTATC 0.118
CCACGTCC -0.111
ATATTCAC 0.0912
GGCGTACA 0.171
ACGACTTC 0.0231
ACTGCATG 0.129
TCAGTTAA 0.0667
TGGAGACA 0.073
GTCGGACA 0.177
CACACATC 0.064
CAAGCAAA 0.13
CCATCTGA 0.0541
TAAGCTTA 0.0694
TTCAAAAA 0.0144
CCAGTGTA 0.115
GCTTTAGA -0.0862
AATAGCCT -0.0311
ACAGCATG 0.241
GGCTGTTA 0.0722
GTAGAACA 0.149
GGCGACCA -0.135
CACACAAG 0.152
GCTTTCTA 0.00474
CGTCGTTA -0.0604
AACTAATT 0.166
CGGGACAC 0.0745
CAATGTTA 0.269
CGAAGCAC -0.0222
ACAGCACT 0.0954
ACCTCGCC -0.212
AAAACTGG -0.0691
AATTCCCG 0.0125
AATGATGG 0.0447
CAGAACTC -0.0352
ATGGTGAC 0.116
AGGTATCC 0.0495
GATAACAC 0.25
CAAGAATG 0.00113
ATCAGGGC -0.0924
CGTGAAAA 0.0737
CCCGGAGA -0.134
GCTGACGA 0.0114
GCGTGCGA -0.153
GTGCTGCA 0.00845
GGAGGAAA -0.127
CGATAGGC -0.0798
CTTCATCA 0.0127
ACTGGGGG -0.327
ATAAAGCC -0.137
GTTCGAGA 0.0999
AATTGCGG -0.0675
CACAAGGA 0.109
CTATTCTA 0.0511
GCCGTCAC -0.11
AGAATATG 0.186
GCGACGCC -0.209
CGGGTGAC -0.151
CAGTAGAA -0.072
AACTTCCT 0.0238
CTGAGCAG -0.0117
GATCCAAC 0.0067
CGTTTACC -0.0749
GTAGTAAC 0.196
CCCTATAG -0.0581
AACGCCGC -0.16
AAACTCCT -0.0174
AATATAGA 0.138
CCGCAAGA -0.207
AGATCATA 0.138
ACAGAAAA 0.0795
GACCTTGC -0.12
GCATAGCA 0.074
AAGTTTAT 0.163
AGGTGCAC -0.0575
GTATCCCA 0.0287
GGGGTCTA -0.125
CACCCATG -0.0467
CACTACTA 0.0827
ATTCGCAA 0.0683
CATTTAAG 0.0622
CGTAGCTC 0.0259
AAGAAGGC -0.138
CGAATGAC 0.167
GTAAAGAA 0.089
CATTATAG 0.0171
GCAGTTAC 0.126
ACCGTTAC 0.106
GGGAATTA 0.0659
GACGCCTC -0.111
CACTCTAA 0.0144
CCCACGCC -0.286
ATCTCTCG 0.0246
GTTACAGA 0.172
CCTCATCA 0.0567
TCGATTCA 0.107
GACGGCAA -0.0543
CGCAAGCC -0.115
ACTTTCCT -0.143
ATGACTTC 0.126
TATGCGCA -0.0233
AAGGTAAG 0.00616
GTGACTTA 0.104
